Laboratory results: PMC3316498
No constants are given. Whether binding was seen depends on the method and setting. In cells and extracts the contact can be indirect. Some results given as binding are weak or reduced against the parent protein; the word gives no strength.

The chains behind the UniProt entries cited, without tags or fusion partners. Where a name states a change or a piece, a line headed by the entry shows the natural chain unless it says otherwise. A line that says so, or that is headed by a name, gives the form on record, which may keep a tag or linker. Residues count along the entry.
UniProt Q8I5I8: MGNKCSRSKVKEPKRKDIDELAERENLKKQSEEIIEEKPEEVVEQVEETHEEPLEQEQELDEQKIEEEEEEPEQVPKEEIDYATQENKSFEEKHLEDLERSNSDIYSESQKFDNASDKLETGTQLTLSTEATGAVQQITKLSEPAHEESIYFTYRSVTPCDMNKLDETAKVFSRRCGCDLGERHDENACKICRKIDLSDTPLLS
N-terminal 29 residues of GAP45 fused to GFP (N-GAP45): residues 1-29 of Q8I5I8
UniProt Q8IDR3: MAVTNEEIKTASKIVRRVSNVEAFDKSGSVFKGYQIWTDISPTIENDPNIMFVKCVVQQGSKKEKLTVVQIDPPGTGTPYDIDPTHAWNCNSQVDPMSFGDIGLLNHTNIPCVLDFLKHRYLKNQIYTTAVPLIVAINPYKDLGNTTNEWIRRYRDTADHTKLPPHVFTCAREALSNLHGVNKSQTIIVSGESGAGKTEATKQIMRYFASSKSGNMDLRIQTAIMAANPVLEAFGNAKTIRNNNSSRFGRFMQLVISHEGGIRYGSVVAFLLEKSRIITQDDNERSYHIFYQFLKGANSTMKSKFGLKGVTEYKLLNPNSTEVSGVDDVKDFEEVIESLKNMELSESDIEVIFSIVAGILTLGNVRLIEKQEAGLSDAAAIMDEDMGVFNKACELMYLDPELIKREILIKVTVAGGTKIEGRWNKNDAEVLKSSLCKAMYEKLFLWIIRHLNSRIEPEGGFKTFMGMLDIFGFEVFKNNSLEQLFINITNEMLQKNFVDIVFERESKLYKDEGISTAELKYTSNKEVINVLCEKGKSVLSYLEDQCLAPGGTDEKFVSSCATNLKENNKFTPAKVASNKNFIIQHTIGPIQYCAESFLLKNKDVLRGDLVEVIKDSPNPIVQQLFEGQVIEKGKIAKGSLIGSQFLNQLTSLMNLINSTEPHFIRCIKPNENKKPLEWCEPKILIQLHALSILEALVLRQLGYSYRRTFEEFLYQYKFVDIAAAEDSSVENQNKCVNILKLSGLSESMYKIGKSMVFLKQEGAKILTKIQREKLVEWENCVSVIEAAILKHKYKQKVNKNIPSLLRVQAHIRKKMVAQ
UniProt Q8I4W8: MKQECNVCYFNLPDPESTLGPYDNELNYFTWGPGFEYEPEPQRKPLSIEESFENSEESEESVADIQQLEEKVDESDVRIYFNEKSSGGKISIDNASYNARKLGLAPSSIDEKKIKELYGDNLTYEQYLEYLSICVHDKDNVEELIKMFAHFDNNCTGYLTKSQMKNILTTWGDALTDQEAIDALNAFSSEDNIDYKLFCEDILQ

Experiments:
[1] = molecular target: N-terminal 29 residues of GAP45 fused to GFP (N-GAP45) (P. falciparum) (UniProt Q8I5I8); assay: co-IP; GFP-fusion proteins precipitated from schizont lysates (10 mM Tris-HCl pH 7.5, 150 mM NaCl, 0.5 mM EDTA, 0.5% NP-40, diluted with buffer lacking NP-40) with GFP-Trap beads, 1 h at RT; Western blotting with antibodies to GFP, GAP45, GAP50, MTIP, MyoA, CDPK1
[2] = molecular target: full-length GAP45 in which GFP was inserted into the ORF just after the N-terminal 29 amino acids (FL-GAP45) (P. falciparum) (UniProt Q8I5I8); assay: as above

Row | Substance | binding [1] | binding [2]
1 | myosin A (MyoA, a type XIV myosin) (from UniProt Q8IDR3 1-818) | no binding | binds
2 | myosin tail domain interacting protein (MTIP) (from UniProt Q8I4W8 1-204) | no binding | binds
3 | native GAP45 (from UniProt Q8I5I8 1-204) | – | no binding
